# Assay results as given in ChEMBL document CHEMBL5634115, “Exploring novel anticancer pyrazole benzenesulfonamides featuring tail approach strategy as carbonic anhydrase inhibitors” (Eur J Med Chem, 2023).
# How the values were obtained:
# Experiment in all cases: cells
# CCRF-CEM [1] = type: functional; settings: Homo sapiens, time 48 hrs
# HL-60(TB) [2] = type: functional; settings: Homo sapiens, time 48 hrs
# EKVX = type: functional; settings: Homo sapiens, time 48 hrs
# HOP-92 [3] = type: functional; settings: Homo sapiens, time 48 hrs
# NCI-H23 [4] = type: functional; settings: Homo sapiens, time 48 hrs
# NCI-H522 = type: functional; settings: Homo sapiens, time 48 hrs
# HCT-116 [5] = type: functional; settings: Homo sapiens, time 48 hrs
# HCT-15 = type: functional; settings: Homo sapiens, time 48 hrs
# KM12 = type: functional; settings: Homo sapiens, time 48 hrs
# SNB-75 [6] = type: functional; settings: Homo sapiens, time 48 hrs
# MDA-MB-435 = type: functional; settings: Homo sapiens, time 48 hrs
# OVCAR-3 = type: functional; settings: Homo sapiens, time 48 hrs
# SK-OV-3 [7] = type: functional; settings: Homo sapiens, time 48 hrs
# A498 [8] = type: functional; settings: Homo sapiens, time 48 hrs
# ACHN = type: functional; settings: Homo sapiens, time 48 hrs
# UO-31 [9] = type: functional; settings: Homo sapiens, time 48 hrs
# DU-145 [10] = type: functional; settings: Homo sapiens, time 48 hrs
# MDA-MB-468 [11] = type: functional; settings: Homo sapiens, time 48 hrs
# CCRF-CEM [12] = type: functional; settings: Homo sapiens, time 48 hrs; remark: listed apart in the source
# HL-60(TB) [13] = type: functional; settings: Homo sapiens, time 48 hrs; remark: listed apart in the source
# MOLT-4 = type: functional; settings: Homo sapiens, time 48 hrs
# A549 [14] = type: functional; settings: Homo sapiens, time 48 hrs
# NCI-H23 [15] = type: functional; settings: Homo sapiens, time 48 hrs; remark: listed apart in the source
# NCI-H460 = type: functional; settings: Homo sapiens, time 48 hrs
# HCT-116 [16] = type: functional; settings: Homo sapiens, time 48 hrs; remark: listed apart in the source
# SF-268 = type: functional; settings: Homo sapiens, time 48 hrs
# SNB-75 [17] = type: functional; settings: Homo sapiens, time 48 hrs; remark: listed apart in the source
# SK-MEL-2 [18] = type: functional; settings: Homo sapiens, time 48 hrs
# UACC-62 [19] = type: functional; settings: Homo sapiens, time 48 hrs
# OVCAR-5 = type: functional; settings: Homo sapiens, time 48 hrs
# 786-0 = type: functional; settings: Homo sapiens, time 48 hrs
# A498 [20] = type: functional; settings: Homo sapiens, time 48 hrs; remark: listed apart in the source
# RXF 393 [21] = type: functional; settings: Homo sapiens, time 48 hrs
# TK-10 = type: functional; settings: Homo sapiens, time 48 hrs
# PC-3 [22] = type: functional; settings: Homo sapiens, time 48 hrs
# DU-145 [23] = type: functional; settings: Homo sapiens, time 48 hrs; remark: listed apart in the source
# MDA-MB-231 [24] = type: functional; settings: Homo sapiens, time 48 hrs
# BT-549 = type: functional; settings: Homo sapiens, time 48 hrs
# T47D = type: functional; settings: Homo sapiens, time 48 hrs
# MDA-MB-468 [25] = type: functional; settings: Homo sapiens, time 48 hrs; remark: listed apart in the source
# CCRF-CEM [26] = settings: Homo sapiens, 48 h, read-out: LC50
# A549 [27] = settings: Homo sapiens, A549, 48 h, read-out: LC50
# HOP-92 [28] = settings: Homo sapiens, HOP-92, 48 h, read-out: LC50
# NCI-H23 [29] = settings: Homo sapiens, NCI-H23, 48 h, read-out: LC50
# NCI-H322M = settings: Homo sapiens, 48 h, read-out: LC50
# HCC 2998 = settings: Homo sapiens, HCC 2998, 48 h, read-out: LC50
# SNB-19 = settings: Homo sapiens, SNB-19, 48 h, read-out: LC50
# SNB-75 [30] = settings: Homo sapiens, SNB-75, 48 h, read-out: LC50
# U-251 = settings: Homo sapiens, U-251, 48 h, read-out: LC50
# M14 = settings: Homo sapiens, M14, 48 h, read-out: LC50
# SK-MEL-2 [31] = settings: Homo sapiens, SK-MEL-2, 48 h, read-out: LC50
# UACC-62 [32] = settings: Homo sapiens, UACC-62, 48 h, read-out: LC50
# OVCAR-4 = settings: Homo sapiens, OVCAR-4, 48 h, read-out: LC50
# SK-OV-3 [33] = settings: Homo sapiens, SK-OV-3, 48 h, read-out: LC50
# A498 [34] = settings: Homo sapiens, A498, 48 h, read-out: LC50
# RXF 393 [35] = settings: Homo sapiens, RXF 393, 48 h, read-out: LC50
# UO-31 [36] = settings: Homo sapiens, UO-31, 48 h, read-out: LC50
# PC-3 [37] = settings: Homo sapiens, PC-3, 48 h, read-out: LC50
# DU-145 [38] = settings: Homo sapiens, DU-145, 48 h, read-out: LC50
# MDA-MB-231 [39] = settings: Homo sapiens, MDA-MB-231, 48 h, read-out: LC50
# Hs-578T = settings: Homo sapiens, 48 h, read-out: LC50
compound,measurement,setting,value
NS(=O)(=O)c1ccc(-n2cc(/C=N/Nc3ccc(C(=O)O)cc3)c(-c3ccccc3)n2)cc1,GI50,CCRF-CEM [1],3.42 µM
same,GI50,HL-60(TB) [2],1.68 µM
same,GI50,EKVX,3.62 µM
same,GI50,HOP-92 [3],3.29 µM
same,GI50,NCI-H23 [4],3.39 µM
same,GI50,NCI-H522,2 µM
same,GI50,HCT-116 [5],3.11 µM
same,GI50,HCT-15,1.78 µM
same,GI50,KM12,1.84 µM
same,GI50,SNB-75 [6],4.54 µM
same,GI50,MDA-MB-435,2.21 µM
same,GI50,OVCAR-3,1.93 µM
same,GI50,SK-OV-3 [7],12.6 µM
same,GI50,A498 [8],15.3 µM
same,GI50,ACHN,3.66 µM
same,GI50,UO-31 [9],3.03 µM
same,GI50,DU-145 [10],3.25 µM
same,GI50,MDA-MB-468 [11],2.49 µM
same,TGI,CCRF-CEM [12],19.2 µM
same,TGI,HL-60(TB) [13],5.44 µM
same,TGI,MOLT-4,6.41 µM
same,TGI,A549 [14],> 100 µM
same,TGI,NCI-H23 [15],12.5 µM
same,TGI,NCI-H460,6.03 µM
same,TGI,HCT-116 [16],10.5 µM
same,TGI,SF-268,15 µM
same,TGI,SNB-75 [17],27.4 µM
same,TGI,SK-MEL-2 [18],11.8 µM
same,TGI,UACC-62 [19],18 µM
same,TGI,OVCAR-5,18 µM
same,TGI,786-0,7.21 µM
same,TGI,A498 [20],51.3 µM
same,TGI,RXF 393 [21],4.49 µM
same,TGI,TK-10,71.7 µM
same,TGI,PC-3 [22],47.5 µM
same,TGI,DU-145 [23],21.6 µM
same,TGI,MDA-MB-231 [24],13.1 µM
same,TGI,BT-549,23.6 µM
same,TGI,T47D,> 100 µM
same,TGI,MDA-MB-468 [25],6.5 µM
same,CC50,CCRF-CEM [26],> 100 µM
same,CC50,A549 [27],> 100 µM
same,CC50,HOP-92 [28],> 100 µM
same,CC50,NCI-H23 [29],68.2 µM
same,CC50,NCI-H322M,> 100 µM
same,CC50,HCC 2998,9.8 µM
same,CC50,SNB-19,70.8 µM
same,CC50,SNB-75 [30],> 100 µM
same,CC50,U-251,> 100 µM
same,CC50,M14,21.7 µM
same,CC50,SK-MEL-2 [31],38.1 µM
same,CC50,UACC-62 [32],45.1 µM
same,CC50,OVCAR-4,> 100 µM
same,CC50,SK-OV-3 [33],> 100 µM
same,CC50,A498 [34],> 100 µM
same,CC50,RXF 393 [35],9.62 µM
same,CC50,UO-31 [36],> 100 µM
same,CC50,PC-3 [37],> 100 µM
same,CC50,DU-145 [38],> 100 µM
same,CC50,MDA-MB-231 [39],> 100 µM
same,CC50,Hs-578T,> 100 µM
